Hit rate of the full screen: of about 110,000 compounds, about 40 (0.04%) were called active. The inconclusive results got no clear call from the source; some entries with a clear call stand among them for comparison. Calls come from the whole dose curve; as a rule, active = well fitted curve in the direction sought with a large enough effect in the signal ratio (not every such curve was filed as active); inconclusive = small, poorly fitted or top-dose-only effect, or a change in a side signal; inactive = flat fitted curve, though single readings scatter; the % refers to the signal ratio. Potencies beside an inconclusive call are fits to weak or partial responses and may not hold up.
Assay: IkB Signaling
Conditions: ABC-DLBCL IkBa-CBG/CBR dual luciferase ratio (green luciferase fused to IkBa over red control in OCI-Ly3 lymphoma cells), 4 h; IkBa stabilization activation: at 57.1 µM (top of the series), scaled: untreated 0%, proteasome inhibitor 100% unless noted
How it was run: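 Curves were fitted separately to fusion (green), unfused (red) and ratio luminescence, then classed by r2, magnitude and activity. Cells: OCI-Ly3, 4 h compound plus doxycycline at 37C; 10 uM MG-132 defined full response.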
Potency is the fitted concentration of half-maximal effect.

For `O=C1CC(SCc2nc3ccccc3[nH]2)C(=O)N1c1cccc(F)c1` (centres undefined), which IkBa stabilization activation is on record?
Its IkBa stabilization activation is inconclusive: 11.6% [signal inhibitor].

Which IkBa stabilization activation does the source give for `COc1ccc(NC(=O)Cn2c(=O)n(-c3ccccc3)c(=O)c3c4c(sc32)CCCC4)cc1` here?
The IkBa stabilization activation was inconclusive: 14.9% [signal activator].

With `O=C(CN(c1ccc2c(c1)OCCO2)S(=O)(=O)c1ccccc1)Nc1ccc2c(c1)OCO2` as the compound, how does the IkBa stabilization activation read?
The IkBa stabilization activation was inconclusive: 2.68% [signal inhibitor].

For `C=CCn1c(SCC(=O)Nc2ccc3c(c2)CCC3)nnc1-c1cccs1`, which IkBa stabilization activation is on record?
Its IkBa stabilization activation is inconclusive: 3.04% [signal inhibitor].

For `Cc1cc(C)cc(Nc2cc(-c3ccccc3)nc(C)n2)c1`, which IkBa stabilization activation is on record?
Its IkBa stabilization activation is inconclusive: -0.785% [signal inhibitor].

With `CCCCN(C)c1nnc(NC(=O)Nc2cccc(C(C)=O)c2)s1` as the compound, how does the IkBa stabilization activation read?
Its IkBa stabilization activation is inconclusive: 1.26% [signal inhibitor].

For `C=CCSC1=C(C#N)C(c2ccccc2Cl)CC(=O)N1` (centres undefined), which “IkBa stabilization activation” value is on record?
Its value is inactive: -0.973%.

Which “IkBa stabilization activation” value does the source give for `COc1ccc(N2CCN(C(=O)c3ccc(CNc4c(N5CCOCC5)c(=O)c4=O)cc3)CC2)cc1` here?
The value was inactive: -1.02%.

With `COc1ccc(-c2cc(NCc3ccc(F)cc3)n3cnnc3n2)cc1` as the compound, how does the IkBa stabilization activation read?
The IkBa stabilization activation was inconclusive: 0.601% [signal inhibitor].

Which IkBa stabilization activation does the source give for `Cc1cc(OCC(=O)NCC2(N3CCN(C)CC3)CCCCC2)cc(C)c1Cl` here?
The IkBa stabilization activation was inconclusive: -1.53% [signal inhibitor].

With `Cc1nn(CC(=O)NCCc2ccc(Cl)cc2)c(=O)c2cc3cc(F)ccc3n12` as the compound, how does the IkBa stabilization activation read?
Its IkBa stabilization activation is inconclusive: 4.83% [signal inhibitor].

For `COc1ccc(C2C3=C(Nc4ncnn42)c2ccccc2CCC3)cc1` (centres undefined), which “IkBa stabilization activation” value is on record?
The value was inactive: 0.711%.

Which IkBa stabilization activation does the source give for `Cc1ccc(-n2nc3c(N4CCC(C(=O)N5CCCCC5)CC4)nnc(C)c3c2C)cc1` here?
Its IkBa stabilization activation is inconclusive: 0.311% [signal inhibitor].

Which IkBa stabilization activation does the source give for `CCCc1cc(N2CCN(c3cc(Cl)ccc3C)CC2)n2cnnc2n1` here?
The IkBa stabilization activation was inconclusive: -2.42% [signal inhibitor].

For `CCOCCCn1c(=NC(C)=O)c(C(=O)OCC)cc2c(=O)n3ccccc3nc21`, which “IkBa stabilization activation” value is on record?
Its value is inactive: -0.958%.

Which IkBa stabilization activation does the source give for `c1ccc(-n2ncc3c(NCc4cccnc4)ncnc32)cc1` here?
The IkBa stabilization activation was inconclusive: 6.96% [signal inhibitor].

For `CCCCN(CCCC)C(=O)CN(C)S(=O)(=O)c1ccc2c(c1)c(=O)n(C)c(=O)n2C`, which “IkBa stabilization activation” value is on record?
The value was inactive: -0.963%.

Which IkBa stabilization activation does the source give for `Cc1sc2c(c1C)c(=O)n(CCc1ccccc1)c(=O)n2Cc1cccc(F)c1` here?
Its IkBa stabilization activation is inconclusive: 4.4% [signal inhibitor].

Which IkBa stabilization activation does the source give for `O=C(C1CCC1)N1CCc2cc(S(=O)(=O)NCCN3CCN(c4ccccc4F)CC3)ccc21` here?
The IkBa stabilization activation was inconclusive: 7.34% [signal inhibitor].

With `CCn1c(=O)cc(SCC(=O)Nc2ccc3c(c2)OCCO3)c2ccccc21` as the compound, how does the IkBa stabilization activation read?
The IkBa stabilization activation was inconclusive: -0.93% [signal inhibitor].

For `Cc1ccc(-n2c(=O)c3c(c4cc(C)ccc4n3C)n(CC(=O)NCc3ccccc3Cl)c2=O)cc1`, which IkBa stabilization activation is on record?
The IkBa stabilization activation was inconclusive: 3.56% [signal inhibitor].

With `CCc1nnc2n1N=C(c1ccc(-c3cc(Cl)ccc3Cl)o1)CS2` as the compound, how does the Potency read?
Its Potency is inconclusive: 12.6 µM [signal inhibitor, partial curve].

Which IkBa stabilization activation does the source give for `COc1ccc(CCC(=O)NC2CC(=O)N(c3ccc(C)cc3)C2)cc1` (centres undefined) here?
Its IkBa stabilization activation is inconclusive: 0.672% [signal inhibitor].

For `CCCCNC(=O)C(CC)Sc1nnc(-c2cccc(F)c2)c(-c2cccc(F)c2)n1` (centres undefined), which IkBa stabilization activation is on record?
Its IkBa stabilization activation is inconclusive: -0.478% [signal inhibitor].

With `CC(=O)Nc1c(C)nn(-c2ccccc2)c1N1CCC(C(=O)NCc2ccc(Cl)cc2)CC1` as the compound, how does the IkBa stabilization activation read?
Its IkBa stabilization activation is inconclusive: 1.86% [signal inhibitor].

Which IkBa stabilization activation does the source give for `Cc1cc(C)cc(N2CC(c3nc(-c4ccccc4C)no3)CC2=O)c1` (centres undefined) here?
The IkBa stabilization activation was inconclusive: 0.355% [signal inhibitor].

With `CCOC(=O)c1ccc(NC(=O)CN(c2ccc(C)cc2)S(=O)(=O)c2c(C)noc2C)cc1` as the compound, how does the IkBa stabilization activation read?
The IkBa stabilization activation was inconclusive: 1.96% [signal inhibitor].

Which IkBa stabilization activation does the source give for `Cc1nc2c(C(=O)NCCc3ccc(Cl)cc3)cnn2c(C)c1Cc1c(F)cccc1Cl` here?
The IkBa stabilization activation was inconclusive: 3.07% [signal inhibitor].

With `C[C@@H]1C(=O)N(C)C(=O)c2nc[nH]c21` as the compound, how does the “IkBa stabilization activation” value read?
The value was inactive: -2.25%.

Which “IkBa stabilization activation” value does the source give for `CCn1c(C)cc2c(c1=O)C(c1ccncc1)C(C#N)=C(N)O2` (centres undefined) here?
Its value is inactive: 0.185%.

Which “IkBa stabilization activation” value does the source give for `COc1ccc(S(=O)(=O)NCCC(=O)NCc2ccc(F)cc2)cc1` here?
The value was inactive: 0.88%.

For `O=C(CN1C=NS(=O)(=O)c2ccccc21)Nc1ccc(F)cc1`, which “IkBa stabilization activation” value is on record?
Its value is inactive: 0.649%.

With `COc1ccc(-c2cc3nc(C)c(CCC(=O)N4CCN(c5cccc(Cl)c5)CC4)c(C)n3n2)c(OC)c1` as the compound, how does the Potency read?
Its Potency is inconclusive: 3.98 µM [signal inhibitor].

Which IkBa stabilization activation does the source give for `O=C(NCc1cccs1)c1ccc2c(c1)N(Cc1ccccc1Cl)C(=O)c1ccccc1S2` here?
The IkBa stabilization activation was inconclusive: 3.43% [signal inhibitor].

Which Potency does the source give for `Cc1ccccc1-c1ncnn1-c1sc2c(c1C#N)CCCCC2` here?
The Potency was inconclusive: 10 µM [signal inhibitor].

Which “IkBa stabilization activation” value does the source give for `COCc1cc(CN2CCCC2)c(O)c2ncccc12` here?
Its value is inactive: 0.0844%.

For `COc1ccc(CNC(=O)c2cc3cc(C)ccc3n2C)cc1`, which IkBa stabilization activation is on record?
The IkBa stabilization activation was inconclusive: -1.16% [signal inhibitor].

Which “IkBa stabilization activation” value does the source give for `COc1ccc(-c2noc(-c3ccc(NCc4ccc(C)cc4)c([N+](=O)[O-])c3)n2)cc1OC` here?
Its value is inactive: 1.66%.

With `Cn1c(=O)c2c(nc(SCC(=O)Nc3ccc(OC(F)(F)F)cc3)n2Cc2cccc(C(F)(F)F)c2)n(C)c1=O` as the compound, how does the IkBa stabilization activation read?
Its IkBa stabilization activation is inconclusive: 6.01% [signal inhibitor].

For `COc1ccc(N2CCN(c3nc4ccccc4n3CC(=O)c3ccccc3)CC2)cc1`, which IkBa stabilization activation is on record?
Its IkBa stabilization activation is inconclusive: 1.86% [signal inhibitor].

For `CCOC(=O)c1sc2ccccc2c1S(=O)(=O)Nc1c(C)cccc1C`, which IkBa stabilization activation is on record?
The IkBa stabilization activation was inconclusive: -0.958% [signal inhibitor].

For `COc1ccccc1OCc1csc(NC(=O)c2ccco2)n1`, which Potency is on record?
Its Potency is inconclusive: 15.8 µM [signal inhibitor, partial curve].

For `Cc1cc(NC(=O)N2CC=C(c3c[nH]c4ccccc34)CC2)ccc1Br`, which IkBa stabilization activation is on record?
The IkBa stabilization activation was inconclusive: 0.149% [signal inhibitor].

With `O=C(Cn1c(=O)n(-c2ccc(F)cc2)c(=O)c2sc3ccccc3c21)N1CCCC1` as the compound, how does the IkBa stabilization activation read?
The IkBa stabilization activation was inconclusive: 3.08% [signal inhibitor].

Reference: PubChem BioAssay AID445 (National Center for Advancing Translational Sciences (NCATS), 2006)
